# Data reported in PubChem BioAssay AID938 (National Center for Advancing Translational Sciences (NCATS), 2007).
# In all, about 73,000 compounds went through this assay and about 1,800 (2.5%) were called active. This list was built around the results that the source calls inconclusive (neither active nor inactive); the mix of calls is not that of the screen. Calls come from the whole dose curve; as a rule, active = well fitted activation curve with a large enough effect; inconclusive = small, poorly fitted or top-dose-only effect; inactive = no such curve, though single readings can be large or run the other way. No potency is given beside an inconclusive call; the fits are too rough. More than one record can exist for a structure, and the calls need not agree.
# Experiment: qHTS Assay for Agonists of the Thyroid Stimulating Hormone Receptor: Activators of Intracellular cAMP Concentrations in Parental HEK 293; note: nearly all actives have a fitted effect of over 55% in size; for activation: % of control where 0% means no effect
# Details: parental HEK293 CNG cAMP sensor, membrane potential fluorescence; activation: at 57.1 µM (top of the series)
# Summary of the method: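 Parental HEK 293 cells stably expressing a cAMP-gated CNG channel were loaded with membrane potential dye containing 100 uM RO 20-1724 for 60 min. Compound added for 30 min; depolarization read as fluorescence intensity at 590 nm.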
# Potency is the fitted concentration of half-maximal effect; tags give direction and shape of the fitted curve.
SMILES,Potency,activation
CCCN(CCC)[C@@H]1CCc2c(OC)cccc2[C@@H]1C,active: 31.6 µM,–
NC[C@@H](O)CSP(=O)(O)O,–,inactive: 3.79% [at 11.4 µM]
COc1cc(=O)[nH]c(SCc2c(F)c(F)c(F)c(F)c2F)n1,"inconclusive [activator, partial curve]",–
N#Cc1ccccc1Cn1cc(C(=O)C2CC2)c2ccccc21,"inconclusive [activator, partial curve]",–
CCOC(=O)C(C)Oc1cc(C)cc2oc(=O)c3c(c12)CCCC3 (centres undefined),"inconclusive [activator, partial curve]",–
CCC(=NCc1ccc2c(c1)OCO2)c1c(O)n(C)c(=O)n(C)c1=O,"inconclusive [activator, single point]",–
C[C@@H](Cc1ccc2c(c1)OC(C(=O)O)(C(=O)O)O2)NC[C@H](O)c1cccc(Cl)c1,–,inactive: 20.7%
Oc1cc(Cl)ccc1Cl,"inconclusive [activator, single point]",–
CCCCn1c(=O)c(C(=O)NCc2ccncc2)c(O)c2ccccc21,"inconclusive [activator, partial curve]",–
CCCN1CCc2cc(O)cc3c2[C@H]1Cc1ccc(O)c(O)c1-3,–,inactive: -6.17%
NCc1cc(=O)[nH]o1,"inconclusive [activator, single point]",–
CCS(=O)(=O)N1CCCC(C(=O)N2CCC3(CC2)OCCO3)C1 (centres undefined),"inconclusive [activator, single point]",–
COc1cc(CCN)ccc1O,–,inactive: 6.21%
CCCN(CCC)[C@@H]1CCc2cccc(O)c2C1,"inconclusive [activator, partial curve, poor fit]",–
CCCN1C[C@H](C)N([C@H](c2ccc(C(=O)N(CC)CC)cc2)c2cccc(OC)c2)C[C@H]1C,–,inactive: -0.109%
S=C=Nc1cccc2ccccc12,–,inactive: -3.04%
CC(C)CN1CC2(CCN(C(=O)Oc3ccccc3)CC2)C1,"inconclusive [activator, single point]",–
COC(=O)C(c1ccccc1)C1CCCCN1 (centres undefined),"inconclusive [activator, partial curve, poor fit]",–
C[C@H]1CC[C@]2(NC1)O[C@@H]1C[C@@H]3[C@@H]4CC=C5C[C@H](O)CC[C@@]5(C)[C@H]4CC[C@@]3(C)[C@H]1[C@@H]2C,–,inactive: -2.61%
CCC(=O)c1cn(Cc2ccccc2C#N)c2ccccc12,active: 20 µM,–
C=CC(C)=O,–,inconclusive: 31.1% [activator]
CS(=O)(=O)O[C@H]1CN2CCC1CC2,–,inactive: 17.7% [at 11.4 µM]
NCCc1c[nH]c2ccc(O)cc12,active: 31.6 µM,–
O=c1[nH]cc(F)c(=O)[nH]1,"inconclusive [activator, single point]",–
CCOc1ccc(OCC)c(NC(=O)CCn2c(=O)oc3ccccc32)c1,"inconclusive [activator, single point]",–

SMILES,Potency,activation
CN(C)CCCNc1c2c(nc3ccc(Cl)cc13)CCCC2,"inconclusive [activator, single point]",–
CC1=C(C)[N+](=O)C2CCCCC2N1[O-] (centres undefined),"inconclusive [activator, single point]",–
N#CC(C(=O)C12CC3CC(CC(C3)C1)C2)c1nc2ccccc2[nH]1 (centres undefined),active: 3.16 µM,–
Cc1cc(N2CCOCC2)nc2ccc(NC(=O)CCC(=O)N3CCC4(CC3)OCCO4)cc12,–,inactive: 6.94%
Cc1nc2cnc(N3CCNCC3)nc2n(C)c1=O,"inconclusive [activator, single point]",–
CCN1CCN(P2(=O)C=C(c3ccccc3)OC(c3ccccc3)=C2)CC1,"inconclusive [activator, partial curve]",–
Oc1c(Cl)c(Cl)c(Cl)c(Cl)c1Cl,active: 31.6 µM,–
CC(=NCCC1=CCCCC1)c1c(O)[nH]c(=O)[nH]c1=O,"inconclusive [activator, single point]",–
c1ccc(Cc2nn3c(Cn4cnc5ccccc54)nnc3s2)cc1,"inconclusive [activator, partial curve]",–
Cc1cccn2c(=O)c3c(nc12)N1CCC(Cc2ccccc2)CC1C1(C3)C(=O)N(C)C(=O)N(C)C1=O (centres undefined),active: 20 µM,–
CC(=O)OCC1=C(C(=O)O)N2C(=O)[C@@H](N)[C@@H]2SC1,"inconclusive [activator, single point]",–
CC(=O)C1=C(O)[C@@H]2[C@@H]3c4c[nH]c5cccc(c45)C[C@@H]3C(C)(C)N2C1=O,–,inactive: -9.36%
CC1=NN(c2ccc(S(=O)(=O)O)cc2C)C(=[OH+])[C@H]1N=Nc1cc(S(=O)(=O)O)ccc1C(=O)O.O.[Cr],"inconclusive [activator, single point]",–
NC(=NCCc1ccc(I)cc1)SCCCc1cnc[nH]1,"inconclusive [activator, single point]",–
CN(C)C(=O)Oc1ccc(-c2nnco2)cc1,"inconclusive [activator, partial curve]",–
O=C(CCC(=O)N1CCC2(CC1)OCCO2)Nc1nnc(C(F)(F)F)s1,"inconclusive [activator, partial curve]",–
Cc1cccc(C)c1NC1=NCCCS1,"inconclusive [activator, single point]",–
CC[C@H](Oc1ccc(Cl)cc1)C(=O)OC1C[C@H]2CC[C@@H](C1)N2C (some centres undefined),"inconclusive [activator, partial curve]",–
CNC(=O)[C@H]1C[C@@H]1[C@H](NP(=O)(c1ccccc1)c1ccccc1)c1ccccc1,active: 15.8 µM,–
Cc1cc(NC(=O)CSc2nc3c(c(=O)n2-c2ccc(Cl)cc2)SCC3)no1,"inconclusive [activator, partial curve]",–
C=CC(N)=O,"inconclusive [activator, single point]",–
CCC(C)(C)n1nnnc1C(c1cccs1)N1CC=C(c2ccc(F)cc2)CC1 (centres undefined),"inconclusive [activator, partial curve]",–
N=c1n(CCO)c2ccccc2n1Cc1ccccc1,"inconclusive [activator, partial curve]",–
Cc1ccc(Cl)cc1N1CCN(C(=O)c2cn(C)c(=O)c3c2c2ccccc2n3C)CC1,"inconclusive [activator, single point]",–
O=S(=O)(O)/C(=C\c1ccccc1)c1ccccc1 (tested in a mixture with another compound),–,inactive: 21.2% [at 11.4 µM]

SMILES,Potency,activation
CN(C)c1nc(OCCNC(=O)COc2ccc(Cl)cc2Cl)nc(N2CCCCC2)n1,"inconclusive [activator, single point]",–
C=CCOC(=O)COc1cc(C)cc2oc(=O)c3c(c12)CCC3,active: 5.01 µM,–
O=S(=O)(NCCO)c1cc[c]([Sb](=[O])([OH])[OH])cc1,–,inactive: -6.76% [at 11.4 µM]
O=C(c1ccco1)N1CCN(Cc2ccccc2C(F)(F)F)CC1,active: 3.98 µM,–
NCCc1c[nH]c2ccccc12,–,inactive: -3.32%
C=CCn1c(O)c(C(CC)=Nc2ccc(N(CC)CC)cc2)c(=O)[nH]c1=O,–,inactive: 3.25%
CCOC(=O)c1c(C)n(Cc2ccco2)c2ccc(OC)cc12,active: 25.1 µM,–
FC(F)(F)c1nc2ccc(SSc3ccc4nc(C(F)(F)F)[nH]c4c3)cc2[nH]1,–,inactive: -9.84% [at 11.4 µM]
Nc1ncnc2c1ncn2[C@@H]1O[C@@H](COP(=O)(O)CP(=O)(O)OP(=O)(O)O)[C@H](O)[C@@H]1O,"inconclusive [activator, partial curve]",–
CC(=O)Oc1ccccc1C(=O)Nc1ncc([N+](=O)[O-])s1,"inconclusive [activator, full curve]",–
COc1cc(OC)c(OC)cc1CNCCc1ccc(OC)c(OC)c1,–,inactive: 4.1%
CCC(C)(C)n1nnnc1C(c1cccc(C#N)c1)N1CCN(c2cc(C)ccc2C)CC1 (centres undefined),"inconclusive [activator, partial curve]",–
Nc1cc(Cl)ccc1O,–,inactive: -16.7%
O=c1[nH]c(=O)n([C@H]2C[C@H](O)[C@H](CO)O2)cc1/C=C\Br,"inconclusive [activator, single point]",–
COc1ccccc1CN1CC[C@@]2(CCCN(C(=O)Oc3ccccc3)C2)C1,"inconclusive [activator, partial curve]",–
COC(=O)c1ccccc1-n1c(C)nc2ccccc2c1=O,"inconclusive [activator, single point]",–
CC[N+](C)(C)c1cccc(O)c1,"inconclusive [activator, single point]",–
Cn1c(C(=O)N2CCC3(CC2)OCCO3)cc2c(=O)n(C)c3ccccc3c21,–,inactive: -9.38%
CN(C)CCC(C#N)(c1ccccc1)c1ccccc1,–,inactive: 27.5% [at 11.4 µM]
COc1ccc(C(=O)c2c(C)n(CCN3CCOCC3)c3cc(I)ccc23)cc1,active: 6.31 µM,–
O=c1[nH]c(=O)n(Cc2ccc(F)cc2)c(O)c1C=NCCN1CCCCC1,–,inactive: 20.7%
O=P(CN1CCN(c2ccccc2)CC1)(N1CCCCC1)N1CCCCC1,"inconclusive [activator, partial curve]",–
CC(C)(C)NC[C@H](O)c1ccccc1Cl,–,inactive: 3.7%
O=C(Oc1ccc2ccc(OC(=O)N3CCOCC3)cc2c1)N1CCOCC1,"inconclusive [activator, single point]",–
